These results are taken from the RNAGym collection of RNA variant scans (doi:10.7554/elife.90254).

The source gives no read counts; variants with many changes may rest on few reads.

B1: LINE1-mini (parent)
chain: GGCAGAGCUCAACACAGCGUGGCAAAGUGGCUGUGGCUAGACUGCC

Variants of B1 are the subject of this data set. As to the kind of experiment: self-cleavage, relative activity (ratio to wild type); higher = more cleavage; in vitro, sequencing; the parent is a self-cleaving ribozyme.
As to G7U C10U A24G G30U C37G, the self-cleavage is 0.02.

G7U C31G A39U G40C: the self-cleavage stood at 0.01.

Consider G7U C15A G17U G19A U28A, for which the self-cleavage was determined as 0.04.

Turning to G7U U9C C15U, the self-cleavage was determined as 0.01.

Consider G7U C13A G27U G40C, for which the self-cleavage came to 0.17.

In the case of G7U G36A G44C, the self-cleavage worked out at 0.11.

Regarding G7U G17U G30U C42A, the self-cleavage was 0.17.

G7U G40C C46A: the self-cleavage is 0.25.

As to G7U G17A G21U U28C, the self-cleavage was 0.03.

As to G7U G30U G36U, the self-cleavage is 0.02.

In the case of G7U U34C C45G, the self-cleavage turned out to be 0.07.

For the variant G7U C10A C13U C15U G17U C18A G19A, the self-cleavage came to 0.05.

Regarding G7U C8G C23A C31G A41U, the self-cleavage amounted to 0.04.

As to G7U G17A C23U U32G C46U, the self-cleavage is 0.22.

On to G7U C13A U28G, for which the self-cleavage came out at 0.02.

Turning to C8A A12C C18A G27C U28A, the self-cleavage was determined as 0.02.

Take G7U G30A C31U U32G G33U U34C U43A: the self-cleavage was 0.24.

For G7U C8U C10A U38A, the self-cleavage worked out at 0.02.

As for G7U C10G U43C, the self-cleavage was determined as 0.01.

Regarding G7U G17A G22U, the self-cleavage was found to be 0.19.

In the case of G7U C10G G17A G22C G30C C46A, the self-cleavage was 0.02.

For the variant G7U G33A G40C C45U, the self-cleavage was 0.08.

For G7U C18A A41U, the self-cleavage amounted to 0.18.

As for C8A A11C C46U, the self-cleavage came out at 0.01.

Turning to G7U G30C G35C A39G, the self-cleavage stood at 0.06.

With G7U G19A G35U C37U, the self-cleavage came out at 0.03.

Take G7U C8A C13U U43A: the self-cleavage is 0.11.

For the variant G7U C10A C18U, the self-cleavage was 0.03.

Regarding G7U G33U G35A, the self-cleavage was 0.02.

As to G7U G22A C31U, the self-cleavage was 0.05.

Turning to G7U C10U C23G A25G G40C, the self-cleavage came to 0.05.

Regarding C8A A14C C37U G44U C45U, the self-cleavage was 0.

On to G7U C8U G27A C37G, for which the self-cleavage is 0.05.

Consider G7U G22U G35A, for which the self-cleavage came to 0.15.

Turning to G7U G19U G27C, the self-cleavage was 0.01.

As for G7U C8U A16U G21U, the self-cleavage came out at 0.09.

For the variant C8A A14G G22U, the self-cleavage worked out at 0.06.

Take C8A A11C C13G A14C C18A G19A U28G G33C G36C: the self-cleavage was 0.

For G7U C8G G27U U38C U43A, the self-cleavage came to 0.04.

With G7U G30C G44A, the self-cleavage was found to be 0.04.

Consider G7U C8U C18G G22A G27U U34G, for which the self-cleavage turned out to be 0.02.

In the case of G7U G17U U20A, the self-cleavage worked out at 0.18.

With G7U G19A G21C A41C C45A, the self-cleavage was found to be 0.12.

G7U C8U A39C C46A: the self-cleavage turned out to be 0.28.

With G7U C18U G30U A41U, the self-cleavage came to 0.15.

On to G7U U20A G29U, for which the self-cleavage stood at 0.07.

G7U G35U U38A A41C: the self-cleavage turned out to be 0.14.

For the variant G7U C10A A16U U32G, the self-cleavage is 0.01.

In the case of G7U G27C G30U G33U, the self-cleavage came out at 0.03.

Consider G7U C8A U38A A39U, for which the self-cleavage is 0.38.

C8A A11C A12G G29A G36U G40C C42G: the self-cleavage is 0.01.

Take G7U C15U C18U G22U: the self-cleavage was 0.08.

Turning to G7U A26U C31A, the self-cleavage was 0.05.

Regarding G7U A26U C31G, the self-cleavage is 0.05.

Consider C8A A12C C23A, for which the self-cleavage turned out to be 0.01.

As to C8A A12C A25C A39C, the self-cleavage is 0.01.

G7U C10U G19U U20G U34G C45A: the self-cleavage stood at 0.06.

With G7U G27C G40C C42U, the self-cleavage worked out at 0.25.

With G7U C8G G17C A25C, the self-cleavage was 0.13.

On to G7U U34A A39U G40A, for which the self-cleavage was determined as 0.09.

Regarding C8A A11G A16G A26U U43A C45U, the self-cleavage turned out to be 0.

In the case of G7U U9G G27A, the self-cleavage was found to be 0.12.

Turning to G7U G29A G33U U43A, the self-cleavage was 0.04.

Take G7U G17A C18G G36A U38A: the self-cleavage was 0.27.

On to G7U C37U U38A, for which the self-cleavage worked out at 0.03.

As for G7U C10U A11G A12U G44A, the self-cleavage stood at 0.01.

Consider G7U C8U A12G A14U A25G, for which the self-cleavage stood at 0.09.

On to G7U C10G C18U G29A, for which the self-cleavage worked out at 0.02.

For the variant C8A A11C G36U C42U, the self-cleavage was determined as 0.04.

For G7U C31U C37A, the self-cleavage came to 0.01.

As for G7U G17A G30A U34A C46G, the self-cleavage was determined as 0.04.

Regarding G7U C10G A14C C46U, the self-cleavage stood at 0.01.

For G7U G17C A25G G27A, the self-cleavage amounted to 0.02.

On to G7U C18A G19C G21C U32G A39C, for which the self-cleavage is 0.11.

In the case of G7U C37U G44A C46A, the self-cleavage amounted to 0.24.

In the case of G7U U9A G21C G30U C31A, the self-cleavage is 0.04.

G7U C13A G21A A41U: the self-cleavage amounted to 0.4.

On to G7U G19A G33U G36A, for which the self-cleavage was 0.16.

As for G7U U9G U32A, the self-cleavage was found to be 0.04.

As to G7U G21C G27C G33C, the self-cleavage worked out at 0.02.

For the variant G7U C10A A11G C45G, the self-cleavage came to 0.01.

As for G7U U9C C45U, the self-cleavage stood at 0.03.

As for G7U C8G C18U A26C, the self-cleavage turned out to be 0.03.

As for G7U G22C C46G, the self-cleavage stood at 0.08.

With G7U C8A G33A, the self-cleavage stood at 0.39.

With G7U C31U U34C U38A, the self-cleavage stood at 0.38.

Regarding G7U C37A C46A, the self-cleavage was found to be 0.04.

Turning to G7U G27U C46G, the self-cleavage is 0.04.

With G7U U9G A16G A24U G33A G44U, the self-cleavage worked out at 0.03.

For G7U C15A G19U G30U U38G A39U, the self-cleavage was 0.1.

Consider G7U C8A U38A, for which the self-cleavage was 0.06.

As for G7U C8A G33U C37G, the self-cleavage was found to be 0.06.

With C8A A11C C13U, the self-cleavage was found to be 0.02.

C8A A11C C13A: the self-cleavage came out at 0.01.

Take G7U G29C G36C C37U: the self-cleavage came to 0.01.

On to G7U U9C A25C, for which the self-cleavage was 0.02.

Regarding G7U C23A U32C C42U, the self-cleavage was determined as 0.09.

Regarding G7U C15A C23G A26C U32C C37A A39U, the self-cleavage is 0.01.

As for G7U C10A C23A, the self-cleavage was 0.01.

For the variant G7U C15A C18A G21A, the self-cleavage came to 0.08.

As for G7U C23A C46U, the self-cleavage stood at 0.14.

For the variant G7U G33U G40C, the self-cleavage came out at 0.21.

On to G7U U9G C46A, for which the self-cleavage amounted to 0.12.

Take C8A A11C G30U G33U: the self-cleavage came to 0.02.

With G7U U20C G36C, the self-cleavage was 0.03.

Regarding G7U C13U A14U C23U, the self-cleavage is 0.09.

On to G7U G19A U20C A26U, for which the self-cleavage came to 0.03.

On to G7U C10U G21U G35C, for which the self-cleavage is 0.03.

C8A A14U G29U: the self-cleavage is 0.14.

Consider G7U C10U G21A U32C, for which the self-cleavage amounted to 0.03.

For G7U U20A A25G A26C C46U, the self-cleavage turned out to be 0.06.

Consider G7U U9C C18G A24U A41C, for which the self-cleavage worked out at 0.03.

For the variant G7U C10G G44C, the self-cleavage was 0.01.

Take G7U C10G G44U: the self-cleavage was found to be 0.02.

For G7U G21A C23A U34G C45A, the self-cleavage was found to be 0.09.

In the case of C8A A11C C31G U32G, the self-cleavage turned out to be 0.01.

Turning to C8A A11C A26G U32C U43G C45A, the self-cleavage was 0.01.

In the case of G7U C10A A26C G33A, the self-cleavage came out at 0.01.

For G7U C45A C46A, the self-cleavage was 0.19.

Consider G7U C23G A25G, for which the self-cleavage worked out at 0.01.

For C8A A11C U43C C46U, the self-cleavage came to 0.01.

Turning to G7U U9A G21A G35U, the self-cleavage was 0.09.

For the variant G7U U9C C18U A24G C46A, the self-cleavage came out at 0.01.

Regarding C8A A14C C31G, the self-cleavage came out at 0.07.

Consider G7U U28G G30A, for which the self-cleavage was 0.04.

For G7U C10U G21U G27C G29C G40A, the self-cleavage amounted to 0.01.

As for G7U G27C G40U, the self-cleavage was 0.41.

Consider G7U C10U G40U, for which the self-cleavage worked out at 0.05.

For the variant G7U G21U A25G A26G C37A, the self-cleavage stood at 0.08.

Turning to G7U U9A C10A G17A G19A G21A G29C, the self-cleavage turned out to be 0.02.

Regarding G7U C37A A39C C45A, the self-cleavage stood at 0.13.

Take C8A A14U G40C: the self-cleavage was found to be 0.23.

Turning to G7U C31G U38G C46U, the self-cleavage amounted to 0.01.

In the case of G7U C13U G22U C31U C42G, the self-cleavage turned out to be 0.03.

Consider C8A A11U G27U G36U, for which the self-cleavage was 0.01.

G7U C15U C18G G29A C31U: the self-cleavage is 0.11.

As to G7U G27A U43C, the self-cleavage turned out to be 0.08.

In the case of G7U C18U A25C U38A C42G, the self-cleavage turned out to be 0.05.

For the variant G7U G27A G35C A39G C46A, the self-cleavage was determined as 0.09.

On to G7U U28A C46A, for which the self-cleavage was 0.03.

As for G7U G29C G30A C31G G36U, the self-cleavage is 0.05.

On to C8A A14C G33A, for which the self-cleavage amounted to 0.12.

Consider G7U C18U U32G, for which the self-cleavage is 0.06.

For the variant G7U U9A A26G, the self-cleavage was determined as 0.05.

G7U C8U A16G C37A: the self-cleavage is 0.43.

With G7U U9C G36C C37A A39G, the self-cleavage came out at 0.

G7U C13U C23A A24C: the self-cleavage was 0.08.

In the case of G7U C13U G21A U38G, the self-cleavage was found to be 0.01.

For C8A A12C G33U U43A, the self-cleavage is 0.04.

On to G7U G30C G35C, for which the self-cleavage was found to be 0.21.

Turning to G7U C18A G30U A41U, the self-cleavage stood at 0.07.

As for G7U C18A G27U, the self-cleavage turned out to be 0.06.

As for G7U C15U G36C, the self-cleavage was 0.03.

As to G7U G36C C37A U38G, the self-cleavage amounted to 0.02.

On to G7U C8G G35A, for which the self-cleavage turned out to be 0.48.

As to G7U U9C C10U C13U U20G G22U, the self-cleavage was determined as 0.01.

As for G7U C23U G44U, the self-cleavage was determined as 0.17.

G7U C31G G36C A39C: the self-cleavage was 0.02.

On to G7U G21C U32G U34A, for which the self-cleavage is 0.03.

Consider G7U C8A U28C G36U, for which the self-cleavage stood at 0.13.

For the variant C8A A12U U20A C31G, the self-cleavage was 0.23.

Take G7U U20C G27U A39U G40C: the self-cleavage was 0.09.

On to G7U C10G A39G, for which the self-cleavage turned out to be 0.02.

With C8A A12G G21A A25C, the self-cleavage was determined as 0.04.

As for G7U C18G G22C, the self-cleavage came to 0.22.

Turning to G7U G17A C31A, the self-cleavage was determined as 0.14.

Turning to G7U C15A G17C A39U G40C, the self-cleavage turned out to be 0.29.
